Measurements from PubChem BioAssay AID504332 (National Center for Advancing Translational Sciences (NCATS), 2011).
The whole screen tested about 350,000 compounds, of which about 31,000 (8.9%) were called active. This list was built around the results that the source calls inconclusive (neither active nor inactive); the mix of calls is not that of the screen. Calls come from the whole dose curve; as a rule, active = well fitted inhibition curve with a large enough effect; inconclusive = small, poorly fitted or top-dose-only effect; inactive = no such curve, though single readings can be large or run the other way. Where the call is inconclusive, the potency comes from a doubtful curve fit.

Biological target: Histone-lysine N-methyltransferase EHMT2 (Homo sapiens) (UniProt Q96KQ7)
UniProt Q96KQ7, sequence (Q96KQ7 whole entry, looked up): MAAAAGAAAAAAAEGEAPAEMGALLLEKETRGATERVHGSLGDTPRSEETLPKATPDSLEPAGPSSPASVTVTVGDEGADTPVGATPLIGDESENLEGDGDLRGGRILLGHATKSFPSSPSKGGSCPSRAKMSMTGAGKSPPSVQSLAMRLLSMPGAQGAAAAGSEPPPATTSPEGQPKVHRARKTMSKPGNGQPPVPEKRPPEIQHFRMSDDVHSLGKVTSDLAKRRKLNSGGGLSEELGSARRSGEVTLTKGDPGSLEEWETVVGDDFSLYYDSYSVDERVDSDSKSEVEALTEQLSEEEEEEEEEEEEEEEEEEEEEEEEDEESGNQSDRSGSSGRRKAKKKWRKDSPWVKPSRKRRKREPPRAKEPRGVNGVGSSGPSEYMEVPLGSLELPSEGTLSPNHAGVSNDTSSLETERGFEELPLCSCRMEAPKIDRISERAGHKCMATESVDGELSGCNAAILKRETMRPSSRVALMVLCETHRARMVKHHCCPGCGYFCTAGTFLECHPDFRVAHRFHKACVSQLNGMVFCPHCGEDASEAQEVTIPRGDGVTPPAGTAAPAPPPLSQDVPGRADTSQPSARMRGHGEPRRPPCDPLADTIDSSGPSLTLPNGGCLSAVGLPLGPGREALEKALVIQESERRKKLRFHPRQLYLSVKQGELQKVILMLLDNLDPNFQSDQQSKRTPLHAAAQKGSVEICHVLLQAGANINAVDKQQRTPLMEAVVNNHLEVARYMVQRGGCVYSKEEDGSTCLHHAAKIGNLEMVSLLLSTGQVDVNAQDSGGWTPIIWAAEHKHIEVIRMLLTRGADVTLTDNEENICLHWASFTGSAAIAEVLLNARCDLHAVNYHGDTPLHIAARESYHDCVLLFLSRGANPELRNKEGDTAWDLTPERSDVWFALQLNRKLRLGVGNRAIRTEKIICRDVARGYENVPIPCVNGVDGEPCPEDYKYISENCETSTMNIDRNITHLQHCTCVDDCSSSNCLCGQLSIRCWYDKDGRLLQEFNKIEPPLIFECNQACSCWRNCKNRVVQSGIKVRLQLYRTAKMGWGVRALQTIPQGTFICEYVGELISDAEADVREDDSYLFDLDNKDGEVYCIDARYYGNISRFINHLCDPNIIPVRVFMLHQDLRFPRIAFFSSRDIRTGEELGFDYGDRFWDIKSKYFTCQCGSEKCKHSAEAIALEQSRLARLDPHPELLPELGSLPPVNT
Test: qHTS Assay for Inhibitors of Histone Lysine Methyltransferase G9a; note: nearly all actives have a fitted effect of over 75% in size
Conditions: G9a H3K9 monomethylation, AlphaScreen, 2 h; activity, negative = inhibition: at 59 µM (top of the series) unless noted
How it was run: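 AlphaScreen read-out: biotin-H3K9 peptide (500 nM) methylation by 20 nM enzyme with 20 uM SAM, 2 h at room temperature after 15 min compound preincubation; anti-monomethyl H3K9 antibody plus donor/acceptor beads, 10 min dark.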
% is set by controls: 0 for no effect and ±100 for the full control effect; potency is the fitted concentration of half-maximal effect; tags give direction and shape of the fitted curve.

For `CCOc1ccccc1C(=O)N(Cc1ccc(N(C)C)cc1)CC1CCCO1` (stereo not drawn), which Potency is on record?
The Potency was inconclusive: 25.1 µM [inhibitor, single point].

With `O=C(NCc1ccccc1)C1=C[C@@H](C2CC2)C[C@@H](OCc2ccc(CO)cc2)O1` as the compound, how does the activity, negative = inhibition read?
The activity, negative = inhibition was inconclusive: -53.4% [inhibitor].

For `Cc1oc(-c2cccc(Cl)c2)nc1CN1CCC(C(=O)NC(C)C)CC1`, which “activity, negative = inhibition” value is on record?
The value was inactive: -0.122%.

With `CCOC(=O)N1CCC(NC(=O)c2cccc3c2C(=O)N(c2ccc(OC)cc2)C3)CC1` as the compound, how does the Potency read?
Its Potency is inconclusive: 3.16 µM [inhibitor, partial curve, poor fit].

Which Potency does the source give for `CCOC(=O)N1CCN(Cc2nc3c(c(=O)n(C)c(=O)n3C)n2Cc2ccc(F)cc2)CC1` here?
Its Potency is inconclusive: 50.1 µM [inhibitor, partial curve].

Which Potency does the source give for `O=C(NCCc1c[nH]c2ccccc12)C(=O)NCC1OCCN1S(=O)(=O)c1cc(F)ccc1F` (stereo not drawn) here?
Its Potency is inconclusive: 70.8 µM [inhibitor, partial curve, poor fit].

Which “activity, negative = inhibition” value does the source give for `O=C(COC(=O)CC1CCCC1)Nc1ccc(Cl)cc1` here?
The value was inactive: 33.8% [at 102 µM].

Which Potency does the source give for `O=C1N=c2ccccc2=C1c1sc(Nc2cccc(O)c2)nc1O` here?
Its Potency is inconclusive: 31.6 µM [inhibitor, partial curve, poor fit].

Which “activity, negative = inhibition” value does the source give for `O=C(Cn1c(=O)c2sccc2n(Cc2ccc([N+](=O)[O-])cc2)c1=O)NCCc1ccccc1` here?
Its value is inactive: 41.7%.

`CN1CCN(c2nc(-c3ccccn3)nc3ccccc23)CC1` was tested. Which Potency did it give?
The Potency was inconclusive: 8.91 µM [inhibitor, full curve, poor fit].

Which Potency does the source give for `C=CCn1c(-c2ccc(OC)c(OC)c2)cs/c1=N\c1ccccn1` here?
Its Potency is active: 3.55 µM.

With `Cc1ccccc1CS(=O)(=O)CCC(=O)O` as the compound, how does the Potency read?
Its Potency is inconclusive: 44.7 µM [inhibitor, partial curve].

How did the Potency turn out when `CCCc1ccc(C2C3=C(CC(C)(C)CC3=O)NC3=C2C(=O)c2ccccc23)cc1` (stereo not drawn) was run?
Its Potency is active: 35.5 µM.

For `COc1cc(C(=O)Nc2ccc(NC(C)=O)cc2)ccc1OCc1ccccc1`, which Potency is on record?
The Potency was inconclusive: 89.1 µM [inhibitor, partial curve, poor fit].

For `O=C(CCCCCn1c(=S)[nH]c2cc3c(cc2c1=O)OCO3)N1CCN(C2CCCCC2)CC1`, which activity, negative = inhibition is on record?
Its activity, negative = inhibition is inconclusive: -81.2% [inhibitor].

How did the Potency turn out when `S=C(Nc1ccc2cn[nH]c2c1)Nc1ccc(Cl)cc1Cl` was run?
Its Potency is active: 28.2 µM.

With `CC(C)OC(=O)CC(=O)c1sc2nc3c(cc2c1N)CN(C)CC3` as the compound, how does the Potency read?
Its Potency is inconclusive: 20 µM [inhibitor, single point].

With `COc1ccc(-c2cc3ccccc3n2CC(O)Cn2nc(C)cc2C)cc1` (stereo not drawn) as the compound, how does the activity, negative = inhibition read?
Its activity, negative = inhibition is inactive: -11.7% [at 12.7 µM].

`CN(Cc1ccccc1)c1nc2c(c(=O)[nH]c(=O)n2C)n1CCOc1ccccc1` was tested. Which Potency did it give?
Its Potency is inconclusive: 89.1 µM [inhibitor, partial curve, poor fit].

How did the Potency turn out when `COc1ccc(C(CNS(=O)(=O)c2ccc(F)cc2)N2CCN(C)CC2)cc1` (stereo not drawn) was run?
Its Potency is inconclusive: 44.7 µM [inhibitor, partial curve].

Which Potency does the source give for `CCC1(C)NC(=O)N(/N=C/c2cc(OC)c(O)c(OC)c2)C1=O` (stereo not drawn) here?
The Potency was inconclusive: 44.7 µM [inhibitor, partial curve, poor fit].

With `CS(=O)(=O)N1CCN(C/C=C/c2ccccc2)CC1` as the compound, how does the Potency read?
The Potency was inconclusive: 50.1 µM [inhibitor, partial curve, poor fit].

Which Potency does the source give for `CCCC(=O)Nc1nnc(CCOC)s1` here?
The Potency was inconclusive: 44.7 µM [inhibitor, partial curve].

Which “activity, negative = inhibition” value does the source give for `Cc1ccc(Cl)cc1N1CCN(C(=O)Cn2cnc3onc(-c4ccc(F)cc4)c3c2=O)CC1` here?
The value was inactive: -8.6%.

`CCCNC(=O)NC(=O)COC(=O)c1ccc(OC)c(S(=O)(=O)N2CCCc3ccccc32)c1` was tested. Which Potency did it give?
Its Potency is inconclusive: 39.8 µM [inhibitor, single point].

With `CC(=O)c1ccc(S(=O)(=O)N2CCN(CC(=O)NC(=O)NC3CCCCC3)CC2)cc1` as the compound, how does the Potency read?
The Potency was inconclusive: 3.98 µM [inhibitor, single point].

Which Potency does the source give for `O=C1OC(c2ccccc2)=C/C1=C/N1CCCCC1` here?
The Potency was inconclusive: 28.2 µM [inhibitor, single point].

For `Cc1ccc(CNC(=O)CSc2ccc(-c3ccco3)nn2)cc1`, which Potency is on record?
Its Potency is inconclusive: 70.8 µM [inhibitor, single point].

How did the Potency turn out when `Cc1ccc(CN2CCSc3ccc(C(=O)N4CCOCC4)cc32)cc1` was run?
Its Potency is inconclusive: 79.4 µM [inhibitor, single point].

`Cc1cccc(C)c1Nc1nnc(SCC(=O)NC2CCS(=O)(=O)C2)s1` (stereo not drawn) was tested. Which Potency did it give?
The Potency was inconclusive: 44.7 µM [inhibitor, partial curve, poor fit].

`Cc1ccc(NC(=O)C2SC(=Nc3ccccc3)C(C(=O)Nc3ccc(Cl)cc3)=C2N)cc1` (stereo not drawn) was tested. Which Potency did it give?
Its Potency is inconclusive: 79.4 µM [inhibitor, partial curve, poor fit].

`COc1ccc(C(C)=O)cc1CN1C(=O)NC(c2ccccc2)(c2ccccc2)C1=O` was tested. Which “activity, negative = inhibition” value did it give?
Its value is inactive: 9.71% [at 102 µM].

With `CCOC(=O)COc1c(-c2ccc(OC)cc2)oc2ccccc2c1=O` as the compound, how does the “activity, negative = inhibition” value read?
The value was inactive: 4.82%.

For `CCN(CC)CCn1c(NCc2ccc3c(c2)OCO3)nc2ccccc21`, which Potency is on record?
Its Potency is inconclusive: 39.8 µM [inhibitor, partial curve, poor fit].

`CC(C)C1Nc2c(O)cc(Cl)c([N+](=O)[O-])c2C2C=CCC21` (stereo not drawn) was tested. Which Potency did it give?
The Potency was active: 25.1 µM.

With `COc1ccc2c(c1)C1C=CCC1C(c1cc3c(cc1Br)OCO3)N2` (stereo not drawn) as the compound, how does the Potency read?
Its Potency is active: 39.8 µM.

For `Cc1ccc(NC(=O)CN(Cc2ccco2)Cc2ccccc2O)cc1C`, which Potency is on record?
The Potency was inconclusive: 20 µM [inhibitor, partial curve, poor fit].

With `COC(=O)c1ccc(CSc2ncnc3c2oc2ccccc23)o1` as the compound, how does the “activity, negative = inhibition” value read?
The value was inactive: 3.06% [at 102 µM].

`OC(CCc1cccc(Cl)c1)c1cccs1` (stereo not drawn) was tested. Which “activity, negative = inhibition” value did it give?
The value was inactive: 58.7% [at 102 µM].

Which Potency does the source give for `CCN(CC(=O)NCc1cccs1)CC(=O)Nc1ccccc1C` here?
Its Potency is inconclusive: 15.8 µM [inhibitor, partial curve, poor fit].

For `Cc1ccc2nc(-c3ccc(NC(=O)Cc4ccccc4)cc3)sc2c1`, which “activity, negative = inhibition” value is on record?
The value was inactive: 1.53%.

Which Potency does the source give for `COC(=O)c1nn(C23CC4CC(CC(C4)C2)C3)c2c1C(=O)N(c1ccc(Br)cc1)C2=O` here?
Its Potency is inconclusive: 28.2 µM [inhibitor, single point].

With `CC(C)Cc1nnc(NC(=O)CN2C(=O)c3ccccc3C2=O)s1` as the compound, how does the Potency read?
Its Potency is active: 25.1 µM.
